Measured values reported in paper PMC10095973.
These are yes or no findings as the source states them, for the method shown. Some results given as binding are weak or reduced against the parent protein; the word gives no strength. Tags and fused reporters may be left off the sequences shown.

Amino acid sequences for entries named in this document (tags omitted).
UniProt Q9S831: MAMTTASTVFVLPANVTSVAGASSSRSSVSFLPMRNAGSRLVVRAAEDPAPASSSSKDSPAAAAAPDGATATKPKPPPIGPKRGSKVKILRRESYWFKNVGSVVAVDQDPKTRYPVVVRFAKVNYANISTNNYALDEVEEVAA
UniProt O04090: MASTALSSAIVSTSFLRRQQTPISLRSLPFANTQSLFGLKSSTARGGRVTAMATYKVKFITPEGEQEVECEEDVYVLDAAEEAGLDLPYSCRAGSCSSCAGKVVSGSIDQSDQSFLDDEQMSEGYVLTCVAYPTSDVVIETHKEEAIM
UniProt P16972: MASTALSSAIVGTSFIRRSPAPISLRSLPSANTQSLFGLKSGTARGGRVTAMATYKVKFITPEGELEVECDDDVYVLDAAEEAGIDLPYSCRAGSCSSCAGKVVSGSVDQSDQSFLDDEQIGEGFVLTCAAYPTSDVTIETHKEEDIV
UniProt Q9S714: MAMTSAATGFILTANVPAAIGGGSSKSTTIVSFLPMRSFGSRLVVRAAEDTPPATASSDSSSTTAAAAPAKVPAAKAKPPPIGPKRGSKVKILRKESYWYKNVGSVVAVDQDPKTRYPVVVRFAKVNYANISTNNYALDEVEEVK

T1: Arabidopsis thaliana purple acid phosphatase 2 (yeast two-hybrid fusion) (Arabidopsis thaliana) (UniProt Q9LMG7)
T1 sequence: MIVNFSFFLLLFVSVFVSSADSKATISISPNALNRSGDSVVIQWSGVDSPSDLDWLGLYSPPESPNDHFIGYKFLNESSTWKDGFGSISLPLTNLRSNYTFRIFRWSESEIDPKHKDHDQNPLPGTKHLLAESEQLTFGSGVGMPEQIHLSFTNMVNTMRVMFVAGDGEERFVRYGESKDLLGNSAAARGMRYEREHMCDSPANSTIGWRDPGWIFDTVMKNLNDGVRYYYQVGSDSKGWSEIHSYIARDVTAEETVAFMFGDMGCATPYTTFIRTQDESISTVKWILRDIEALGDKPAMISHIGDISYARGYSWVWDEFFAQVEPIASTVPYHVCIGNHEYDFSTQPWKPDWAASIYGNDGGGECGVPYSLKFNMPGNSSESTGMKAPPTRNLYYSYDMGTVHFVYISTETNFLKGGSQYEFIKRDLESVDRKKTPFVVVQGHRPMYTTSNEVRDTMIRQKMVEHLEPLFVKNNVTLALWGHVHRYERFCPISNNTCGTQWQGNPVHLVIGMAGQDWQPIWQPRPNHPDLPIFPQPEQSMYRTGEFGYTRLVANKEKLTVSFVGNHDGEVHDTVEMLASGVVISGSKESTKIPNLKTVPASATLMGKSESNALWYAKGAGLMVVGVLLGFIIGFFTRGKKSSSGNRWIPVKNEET


Biological target: T1, Arabidopsis thaliana purple acid phosphatase 2 (yeast two-hybrid fusion) (Arabidopsis thaliana)
Experiment: two-hybrid; systematic yeast two-hybrid assay of AtPAP2 against nucleus-encoded photosystem proteins; which partner was bait is not stated

Molecule	binding
PsaE1 (yeast two-hybrid fusion) (from UniProt Q9S831 1-143)	no binding
FTRB (yeast two-hybrid fusion) (protein, UniProt Q9SJ89 1-146) MNLQAVSCSFGFLSSPLGVTPRTSFRRFVIRAKTEPSEKSVEIMRKFSEQYARRSGTYFCVDKGVTSVVIKGLAEHKDSYGAPLCPCRHYDDKAAEVGQGFWNCPCVPMRERKECHCMLFLTPDNDFAGKDQTITSDEIKETTANM	binds
ferredoxin/thioredoxin reductase subunit A2 (yeast two-hybrid fusion) (protein, UniProt Q8LBP6 1-184) MTNSYALSPAIIAAVRPPASQDYLVAASLSGRKSINSSSSSIFVPISLSTSYGRSKCAFSISRKNPKSTIRCDIAVKSAASVDADADLSSSTSLETEEDEKAKEKIGARVRVTVPLKVYHVVRVPEVELMGMEGFIKDYVVLWKGKKISANLPFKVQFVKEIEGRGPVKFFTHLKEDEFELIDP	binds
FTRA1 (yeast two-hybrid fusion) (protein, UniProt Q9FHL4 1-182) MSSQIALSPAIAAAIRRPSSHDCLSASATTATATPMALKSCIVAPLSLFTSQSQIKHSSSRKTSRTTIRCDVAIKSADSINADANPSSSPSSEEEIEAEAKAKIGSRVRVTAPLKVYHVNRVPEVDLEGMEGKLKDYVAVWKGKRISANLPYKIEFFKEIEGRGLVKFVSHLKEDEFEFIDQ	no binding

Results, then the molecule that gave them:

binding	Molecule
binds	Fd1 (yeast two-hybrid fusion) (from UniProt O04090 1-148)
binds	Fd2 (yeast two-hybrid fusion) (from UniProt P16972 1-148)
binds	PsaE2 (yeast two-hybrid fusion) (from UniProt Q9S714 1-145)
